Measured values: PubChem BioAssay AID588453 (National Center for Advancing Translational Sciences (NCATS), 2011)
The campaign covered roughly 390,000 compounds. About 4,000 (1%) were called active. The inconclusive results got no clear call from the source; some entries with a clear call stand among them for comparison. Calls come from the whole dose curve; as a rule, active = well fitted inhibition curve with a large enough effect; inconclusive = small, poorly fitted or top-dose-only effect; inactive = no such curve, though single readings can be large or run the other way. Where the call is inconclusive, the potency comes from a doubtful curve fit.

Target: Thioredoxin reductase 1, cytoplasmic (Rattus norvegicus) (UniProt O89049)
Experiment: qHTS Assay for Inhibitors of Mammalian Selenoprotein Thioredoxin Reductase 1 (TrxR1): qHTS; note: nearly all actives have a fitted effect of over 65% in size
Settings: recombinant rTrxR1, NADPH fluorescence consumption, selenite substrate; series mostly up to 114 µM
Method in brief: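 Rat TrxR1 (90 nM in the dispensed reagent) was pre-reduced with 400 uM NADPH for 5 min at room temperature, then incubated with compound for 15 min. After 400 uM selenite was added, NADPH fluorescence (Ex 340/Em 450 nm) was followed for 8 min.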
Potency is the fitted concentration of half-maximal effect; tags give direction and shape of the fitted curve.

UniProt O89049, sequence (O89049 whole entry, looked up): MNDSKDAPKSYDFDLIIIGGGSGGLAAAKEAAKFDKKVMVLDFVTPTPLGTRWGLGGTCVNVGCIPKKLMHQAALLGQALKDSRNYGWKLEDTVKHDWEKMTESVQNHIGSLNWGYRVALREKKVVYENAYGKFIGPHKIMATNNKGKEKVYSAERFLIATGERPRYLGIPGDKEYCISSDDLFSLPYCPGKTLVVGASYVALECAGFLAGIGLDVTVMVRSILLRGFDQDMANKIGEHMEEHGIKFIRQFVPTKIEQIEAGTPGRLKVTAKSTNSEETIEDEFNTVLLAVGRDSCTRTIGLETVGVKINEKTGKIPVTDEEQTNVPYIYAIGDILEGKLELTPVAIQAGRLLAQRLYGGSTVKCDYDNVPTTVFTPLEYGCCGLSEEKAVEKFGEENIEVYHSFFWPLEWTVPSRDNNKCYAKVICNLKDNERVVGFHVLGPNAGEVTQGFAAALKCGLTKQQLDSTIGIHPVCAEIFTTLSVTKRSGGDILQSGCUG

With Cc1ccccc1CNC(=O)c1nn(-c2ccccc2F)nc1CO as the molecule, how does the Potency read?
The Potency was “inactive”.

With Cc1ccc(C(=O)NC(=S)Nc2cccnc2Cl)cc1 as the molecule, how does the Potency read?
The Potency was inconclusive: 22.4 µM [inhibitor, full curve].

COc1ccc(/C=C(/NC(=O)c2ccco2)C(=O)N2CCc3ccccc32)cc1OC was tested. Which Potency did it give?
Its Potency is inconclusive: 79.4 µM [inhibitor, partial curve, poor fit].

For CCOC(=O)CC1=C(C(=O)OCC)C(c2cccs2)C(C#N)=C(N)O1 (stereo not drawn), which Potency is on record?
The Potency was “inactive”.

CCOC(=O)c1c(NC(=O)/C=C/C(=O)O)sc(C)c1-c1ccc(C(C)(C)C)cc1 was tested. Which Potency did it give?
The Potency was “inactive”.

For Cc1cc(=O)oc2c3c(cc(OCC(=O)NCC4CCC(C(=O)O)CC4)c12)OC(C)(C)CC3 (stereo not drawn), which Potency is on record?
Its Potency is inconclusive: 79.4 µM [inhibitor, single point].

How did the Potency turn out when Cc1ccc2cc(CN(C(=O)c3ccco3)c3ccccc3)c(=O)[nH]c2c1 was run?
Its Potency is inconclusive: 56.2 µM [inhibitor, single point].

Cc1ccc(C(C[N+](=O)[O-])c2c(C)[nH]n(-c3ccccc3)c2=O)cc1 (stereo not drawn) was tested. Which Potency did it give?
The Potency was inconclusive: 50.1 µM [inhibitor, partial curve].

Which Potency does the source give for Cc1ccc(S(=O)(=O)N2CCN(Cc3cc(Br)ccc3O)CC2)cc1 here?
The Potency was inconclusive: 89.1 µM [inhibitor, single point].

Which Potency does the source give for COC(=O)c1nc(NC(=O)C(C)(C)C)n[nH]1 here?
Its Potency is inconclusive: 22.4 µM [inhibitor, full curve].

Which Potency does the source give for C=CCOC(/C=C/c1ccccc1)C[Si](C)(C)C (stereo not drawn) here?
Its Potency is inconclusive: 20 µM [inhibitor, single point].

CCCC[C@@H]1CCCO[C@@](C(=O)NCc2ccc(C)o2)(C(F)(F)F)C1 was tested. Which Potency did it give?
Its Potency is inconclusive: 22.4 µM [inhibitor, partial curve].

CCSc1ncc(Cl)c(C(=O)Nc2ccc(S(=O)(=O)Nc3ncccn3)cc2)n1 was tested. Which Potency did it give?
The Potency was “inactive”.

Which Potency does the source give for COc1cccc(CNC(=O)CCCn2ncn3c(cc4occc43)c2=O)c1OC here?
Its Potency is inconclusive: 79.4 µM [inhibitor, partial curve, poor fit].

With CC(=O)Nc1ccc2c3c(cccc13)C(=O)N(c1ccccc1)C2=O as the molecule, how does the Potency read?
Its Potency is inconclusive: 89.1 µM [inhibitor, single point].

COC(=O)CN1C(=O)CSc2ccc(S(=O)(=O)Nc3cccc(C)c3)cc21 was tested. Which Potency did it give?
Its Potency is “inactive”.

Which Potency does the source give for NC(=O)C1C(=O)c2ccccc2C1(C[N+](=O)[O-])c1ccccc1 (stereo not drawn) here?
Its Potency is inconclusive: 56.2 µM [inhibitor, partial curve].

Which Potency does the source give for Cc1nc2sc(C(c3ccco3)N3CCOCC3)c(O)n2n1 (stereo not drawn) here?
The Potency was inconclusive: 3.16 µM [inhibitor, partial curve].

How did the Potency turn out when CC(C)(C)OC(=O)N1CCC(c2c(C(=O)Nc3ccc4c(c3)OCCO4)cnn2-c2ccc(F)cc2F)CC1 was run?
The Potency was “inactive”.

With CCN(CC)c1cc(C)c2cc(NC(=O)c3ccccc3Cl)ccc2n1 as the molecule, how does the Potency read?
The Potency was “inactive”.

Cc1ccc(-c2nc3c(c(SCC(=O)N(C)c4ccccc4)n2)Cc2c(CO)cnc(C)c2O3)cc1 was tested. Which Potency did it give?
Its Potency is inconclusive: 50.1 µM [inhibitor, partial curve, poor fit].

With CCCCC(=O)Nc1cccc(NC(=S)NC(=O)Cc2ccccc2)c1 as the molecule, how does the Potency read?
Its Potency is inconclusive: 50.1 µM [inhibitor, partial curve, poor fit].

How did the Potency turn out when O=C(N/N=C/C=C/c1ccco1)c1cccnc1 was run?
Its Potency is active: 5.62 µM.

For COC(=O)c1c(-c2ccco2)csc1NC(=O)C1CC=CCC1C(=O)O (stereo not drawn), which Potency is on record?
The Potency was inconclusive: 39.8 µM [inhibitor, partial curve, poor fit].

With Cc1ccccc1-n1c(-c2csc(C)c2C)n[nH]c1=S as the molecule, how does the Potency read?
The Potency was inconclusive: 8.91 µM [inhibitor, partial curve, poor fit].

Which Potency does the source give for CCc1c(C)c2cc(Cl)c(O)c(CN3CCCC3)c2oc1=O here?
Its Potency is inconclusive: 89.1 µM [inhibitor, single point].

How did the Potency turn out when Cc1cc(C(=O)CSc2nc3ccccc3c(=O)[nH]2)c(C)n1C was run?
The Potency was inconclusive: 50.1 µM [inhibitor, partial curve, poor fit].

For Cc1nc2sc(C(=O)O)c(N)c2c2c1COC(C)(C)C2, which Potency is on record?
The Potency was inconclusive: 28.2 µM [inhibitor, partial curve].

Cc1ccc(C)c(NC(=S)N2CCN(c3ccccn3)CC2)c1 was tested. Which Potency did it give?
The Potency was “inactive”.

Which Potency does the source give for CCC(CO)Oc1cc(NCc2ccc(O)cc2)c2ncn(C(C)C)c2c1 (stereo not drawn) here?
The Potency was inconclusive: 28.2 µM [inhibitor, partial curve, poor fit].

COc1ccc(C2CC(=O)N3CN(c4ccc(C)c(Cl)c4)CSC3=C2C#N)cc1 (stereo not drawn) was tested. Which Potency did it give?
Its Potency is inconclusive: 17.8 µM [inhibitor, partial curve].

Cc1ccc(C(=O)CCS(=O)(=O)c2ccc(Br)cc2)cc1 was tested. Which Potency did it give?
The Potency was active: 0.501 µM.

O=C(c1ccccc1F)N1CCCC(C(=O)N2CCN(c3ccccc3)CC2)C1 (stereo not drawn) was tested. Which Potency did it give?
The Potency was “inactive”.

For CC(C)N1CCc2c(sc(NC(=S)NC(=O)c3ccccc3)c2C#N)C1, which Potency is on record?
The Potency was inconclusive: 56.2 µM [inhibitor, partial curve].

CCN(Cc1ccccc1)Cc1c(O)ccc2c(=O)c(-c3ccccc3Cl)coc12 was tested. Which Potency did it give?
The Potency was inconclusive: 79.4 µM [inhibitor, partial curve, poor fit].

With Cc1ccc(C(CC(=O)c2ccc(Cl)cc2)C(=O)O)cc1 (stereo not drawn) as the molecule, how does the Potency read?
The Potency was “inactive”.

For COCCCC/C(=N\OCCN)c1ccc(C(F)(F)F)cc1, which Potency is on record?
Its Potency is “inactive”.

With Cc1nn(CCc2nn[nH]n2)c2nc(-c3ccc(C4CCCCC4)cc3)cc(C(F)(F)F)c12 as the molecule, how does the Potency read?
Its Potency is “inactive”.

For Cc1cc(C)c(OCCOCCN2CCNCC2)c(C)c1, which Potency is on record?
The Potency was “inactive”.

O=C(NNC(=S)NC(=O)c1ccc(Br)cc1)c1ccc([N+](=O)[O-])cc1 was tested. Which Potency did it give?
The Potency was “inactive”.

For COc1cccc(C(CNC(=O)c2ccc(Cl)c(S(=O)(=O)N3CCCC3)c2)N(C)C)c1 (stereo not drawn), which Potency is on record?
Its Potency is inconclusive: 79.4 µM [inhibitor, single point].

Cn1c2c(c(=O)n(C)c1=O)C(c1ccccc1F)C(C#N)=C(N)O2 (stereo not drawn) was tested. Which Potency did it give?
Its Potency is inconclusive: 22.4 µM [inhibitor, partial curve, poor fit].

Which Potency does the source give for CCN(CC)CCNC(=O)c1cc2cc3ccc(OC)cc3nc2o1 here?
Its Potency is “inactive”.

With Fc1ccccc1SCc1nnc(-c2ccccc2Br)o1 as the molecule, how does the Potency read?
Its Potency is “inactive”.

With O=C(N/N=C/C=C\c1ccco1)c1ccccn1 as the molecule, how does the Potency read?
The Potency was inconclusive: 22.4 µM [inhibitor, single point].

For CCc1ccc2[nH]c(=O)c(CN(Cc3ccccc3)Cc3nnnn3Cc3ccccc3)cc2c1, which Potency is on record?
The Potency was inconclusive: 79.4 µM [inhibitor, partial curve].

NC(=S)N/N=C/c1ccc(-c2cc(Cl)cc(Cl)c2)o1 was tested. Which Potency did it give?
Its Potency is inconclusive: 25.1 µM [inhibitor, full curve, poor fit].

How did the Potency turn out when O=C1CCC(C(=O)N2CCCCO2)CN1CCc1ccc(Cl)cc1 (stereo not drawn) was run?
Its Potency is inconclusive: 79.4 µM [inhibitor, single point].

Cc1cc2nnc(SCC(=O)N3CCN(c4ccccc4)CC3)n2c(N)n1 was tested. Which Potency did it give?
The Potency was inconclusive: 17.8 µM [inhibitor, partial curve].

For O=C(NC(=S)Nc1ccc(O)cc1)C1CCCC1, which Potency is on record?
Its Potency is inconclusive: 11.2 µM [inhibitor, full curve].

COc1ccc(CCNC(=O)c2cc(-c3ccco3)nc3ccccc23)cc1 was tested. Which Potency did it give?
The Potency was inconclusive: 17.8 µM [inhibitor, partial curve, poor fit].

With CC(C)Oc1cccc(C(=O)NC(=S)Nc2ccccc2)c1 as the molecule, how does the Potency read?
Its Potency is inconclusive: 28.2 µM [inhibitor, partial curve].

For COc1cc(C(c2c(NC(=O)c3ccco3)sc(C)c2C)N2CCOCC2)cc(OC)c1OC (stereo not drawn), which Potency is on record?
The Potency was inconclusive: 25.1 µM [inhibitor, single point].

With O=S1(=O)CCO[C@H]2Cc3ccccc3[C@H]2N1Cc1ccc(Cl)cc1 as the molecule, how does the Potency read?
Its Potency is “inactive”.

Cc1cc(C)cc(C(=O)NC(=S)Nc2ccc3c(c2)OCCO3)c1 was tested. Which Potency did it give?
The Potency was inconclusive: 3.55 µM [inhibitor, full curve].

For CN(C)S(=O)(=O)c1cccc(NC(=S)NCc2ccco2)c1, which Potency is on record?
The Potency was inconclusive: 79.4 µM [inhibitor, partial curve, poor fit].

Which Potency does the source give for CCOC(=O)N1CCC(Nc2c(Nc3cccc(CC)c3)c(=O)c2=O)CC1 here?
Its Potency is inconclusive: 79.4 µM [inhibitor, partial curve, poor fit].

With C(=C\c1sc(Nc2ccccc2)n[n+]1-c1ccccc1)/c1ccccc1 as the molecule, how does the Potency read?
The Potency was inconclusive: 79.4 µM [inhibitor, single point].

For COc1ccc(CCNC(=O)c2ccc3ccccc3n2)cc1OC, which Potency is on record?
The Potency was “inactive”.

For Cc1cc(C)c([N+](=O)[O-])cc1-c1ccc(/C=N/c2c(-c3ccco3)nc3ccccn23)o1, which Potency is on record?
Its Potency is inconclusive: 39.8 µM [inhibitor, partial curve, poor fit].

O=C(c1ccccc1NS(=O)(=O)c1ccccc1[N+](=O)[O-])N1CCOCC1 was tested. Which Potency did it give?
The Potency was “inactive”.

With COc1ccc2c(COC(=O)CNC(=O)C34CC5CC(CC(C5)C3)C4)cc(=O)oc2c1 as the molecule, how does the Potency read?
Its Potency is inconclusive: 89.1 µM [inhibitor, single point].

Which Potency does the source give for COCCn1c(-c2ccc(-c3ccccc3Cl)o2)nc2c1c(=O)[nH]c(=O)n2CC(C)C here?
The Potency was inconclusive: 22.4 µM [inhibitor, full curve].

With Cc1c(C)n(CC(O)CN2CCCCC2)c2ccccc12 (stereo not drawn) as the molecule, how does the Potency read?
The Potency was “inactive”.

For O=C(/C=C/c1ccccn1)c1cc(Cl)cc(Cl)c1O, which Potency is on record?
Its Potency is inconclusive: 70.8 µM [inhibitor, partial curve].

How did the Potency turn out when COc1ccc(NC(=O)c2cc(S(=O)(=O)Nc3ccc(OC)cc3)cs2)cc1 was run?
The Potency was inconclusive: 39.8 µM [inhibitor, single point].

Which Potency does the source give for CC(OC(=O)c1cc2c(ccc3ccccc32)oc1=O)c1nc2ccccc2s1 (stereo not drawn) here?
The Potency was “inactive”.

With COc1ccc(-c2[nH]ncc2CN2CCCO2)c(F)c1 as the molecule, how does the Potency read?
Its Potency is inconclusive: 63.1 µM [inhibitor, partial curve, poor fit].
